Marks after values point to notes of the source that are not given here.
What was measured:
[1] = target: T1, hGLP1R-mFc (human GLP1R expressed with mouse IgG2a Fc) (Homo sapiens, UniProt P43220); assay: SPR (Biacore 4000) binding of captured GLP1R mAbs to hGLP1R-mFc
T1 construct: human GLP1R expressed with mouse IgG2a Fc (hGLP1R-mFc)
Method: (§1) The equilibrium dissociation constant (KD) for GLP1R binding to selected GLP1R monoclonal antibodies (mAbs) was determined using a real-time surface plasmon resonance biosensor using a Biacore 4000 instrument. All binding studies were performed in 10 mM HEPES, 150 mM NaCl, 3 mM EDTA, and 0.05% v/v Surfactant Tween-20, pH 7.4 (HBS-ET) running buffer at 25° C. and 37° C. The Biacore CM5 sensor chip surface was first derivatized by amine coupling with human Fc specific mouse mAb to capture different GLP1R mAbs. Different concentrations (100, 25, and 6.25 nM) of the N-terminal region of human GLP1R-MMH (hGLP1R-MMH; SEQ ID NO: 59), human GLP1R expressed with mouse IgG2a Fc (hGLP1R-mFc; SEQ ID NO: 63), an in-line fusion protein of human desA-GLP1 and GLP1R-MMH (hdesA-GLP1_GLP1R-MMH; SEQ ID NO: 62), Macaca fascicularis GLP1R-MMH (mfGLP1R-MMH; SEQ ID NO: 60) or 100 nM mouse GLP1R-MMH (mGLP1R-MMH; SEQ ID NO: 61) prepared in HBS-ET running buffer were injected over the GLP1R mAb captured surface for 150 sec at a flow rate of 30 μL/min and their dissociation in HBS-ET running buffer was monitored for 10 minutes. At the end of each cycle, the GLP1R mAb capture surface was regenerated using a 12 sec injection of 20 mM phosphoric acid.
(§2) The association rate (ka) and dissociation rate (Kd) were determined by fitting the real-time binding sensorgrams to a 1:1 binding model with mass transport limitation using Scrubber 2.0 c curve-fitting software. Binding dissociation equilibrium constant (KD) and dissociative half-life (t½) were calculated from the kinetic rates as: […]

[2] = test system: mfGLP1R-MMH (Macaca fascicularis GLP1R-MMH); assay: SPR (Biacore 4000) binding of captured GLP1R mAbs to mfGLP1R-MMH
Method: as §1, §2

GLP1R humanized mice = assay: Exendin-4 induced hypoglycemia in GLP1R humanized mice (Example 5); type: in vivo; settings: for Blood glucose levels / Percent differences in blood glucose levels from Group 1: Exendin-4 challenge, antibody 25 mg/kg s.c. on Day 0, mean
Method: For the study, 35 mice were randomly divided into one group of fourteen mice and three groups of seven mice. On Day 0, the group of fourteen animals (later divided into Groups 1 and 2) were administered subcutaneously (s.c.) with a mIgG2 isotype control antibody (referred to as Isotype control, dose of 25 mg/kg), whereas the other three groups (n=7/group) were each administered s.c. (dose of 25 mg/kg) with mAb36986 (Group 3), mAb37639 (Group 4), or mAb37645 (Group 5). The next day (Day 1), the isotype control administered fourteen animals were randomly divided into two groups (Group 1 and 2) of seven mice each. At 0 minute on Day 1, animals in Group 1 were administered intraperitoneally (i.p.) with saline, whereas animals in Group 2 were administered i.p. with Exendin-4 (dose of 0.01 mg/kg). At the same time point, animals in Groups 3, 4, and 5 were administered i.p. with Exendin-4 (dose of 0.01 mg/kg). For all animals, blood glucose levels were measured with a handheld glucometer immediately before saline or Exendin-4 administration, and 15, 30, 60, and 120 minutes post administration. All animals remained in their assigned groups until the study completion on Day 67. The Exendin-4 challenge performed on Day 1 was repeated on Days 8, 22, 46, and 67. Mean±SEM of percent differences in blood glucose levels from Group 1 at each time point was calculated for each group and shown in Table 16. Statistical analyses were performed by two-way ANOVA followed by Bonferroni post-hoc tests, comparing Groups 2, 3, 4, and 5 to Group 1.

[3] = target: T2, hGLP1R-MMH (N-terminal region of human GLP1R-MMH) (Homo sapiens, UniProt P43220); assay: SPR (Biacore 4000) binding of captured GLP1R mAbs to hGLP1R-MMH
T2 construct: the N-terminal region of human GLP1R-MMH (hGLP1R-MMH)
T2 sequence (P43220 with tags, fused parts or gaps): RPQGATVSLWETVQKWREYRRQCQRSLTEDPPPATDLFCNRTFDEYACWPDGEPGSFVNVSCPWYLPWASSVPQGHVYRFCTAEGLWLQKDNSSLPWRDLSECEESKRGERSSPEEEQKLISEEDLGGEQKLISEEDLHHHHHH
Method: as §1, §2

[4] = target: T3, mGLP1R-MMH (mouse GLP1R-MMH) (Mus musculus, UniProt O35659); assay: SPR (Biacore 4000) binding of captured GLP1R mAbs to mGLP1R-MMH
T3 construct: 100 nM mouse GLP1R-MMH (mGLP1R-MMH)
T3 sequence (O35659 with tags, fused parts or gaps): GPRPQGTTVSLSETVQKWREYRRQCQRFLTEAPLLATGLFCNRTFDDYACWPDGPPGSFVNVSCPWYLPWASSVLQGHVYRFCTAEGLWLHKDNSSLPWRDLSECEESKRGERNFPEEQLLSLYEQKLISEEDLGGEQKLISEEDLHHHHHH
Method: as §1, §2

[5] = target: T4, hdesA-GLP1_GLP1R-MMH (in-line fusion protein of human desA-GLP1 and GLP1R-MMH) (Homo sapiens, UniProt P43220); assay: SPR (Biacore 4000) binding of captured GLP1R mAbs to hdesA-GLP1_GLP1R-MMH
T4 construct: an in-line fusion protein of human desA-GLP1 and GLP1R-MMH (hdesA-GLP1_GLP1R-MMH)
T4 sequence (P43220 with tags, fused parts or gaps): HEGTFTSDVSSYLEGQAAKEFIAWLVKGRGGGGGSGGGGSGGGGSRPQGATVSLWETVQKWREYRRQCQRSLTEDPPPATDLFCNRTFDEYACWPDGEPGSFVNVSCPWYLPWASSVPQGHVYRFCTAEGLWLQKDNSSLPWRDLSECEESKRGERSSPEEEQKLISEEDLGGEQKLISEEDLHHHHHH
Method: as §1, §2

T1 sequence (P43220 with tags, fused parts or gaps): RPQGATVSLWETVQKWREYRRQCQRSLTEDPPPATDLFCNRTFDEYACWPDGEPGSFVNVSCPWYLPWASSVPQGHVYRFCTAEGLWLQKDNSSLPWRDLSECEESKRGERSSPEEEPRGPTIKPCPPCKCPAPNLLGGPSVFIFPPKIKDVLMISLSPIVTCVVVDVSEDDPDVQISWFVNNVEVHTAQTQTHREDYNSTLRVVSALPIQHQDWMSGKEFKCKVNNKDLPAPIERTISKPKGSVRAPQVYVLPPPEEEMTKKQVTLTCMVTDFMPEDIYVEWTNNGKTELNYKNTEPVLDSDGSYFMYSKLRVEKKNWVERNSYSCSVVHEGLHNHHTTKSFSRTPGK

B1: mAb37645: fully human anti-GLP1R antagonist antibody; HCVR/LCVR SEQ ID NOs: 40/48; heavy/light chain 56/58 (antibody)
heavy: QVRLQQWGAGLLKPSETLSLTCAVYGGSFSGYFWSWIRQPPGKGLEWIGEINHGGNTNSNPSLKSRVTISVDTSKNQFSLKLSAVIAADTAVYYCARGQYRSGGGYWYFDLWGRGTLVTVSSASTKGPSVFPLAPCSRSTSESTAALGCLVKDYFPEPVTVSWNSGALTSGVHTFPAVLQSSGLYSLSSVVTVPSSSLGTKTYTCNVDHKPSNTKVDKRV[human IgG4 Fc with S228P (EU numbers) not printed]
light: EIVLTQSPGTLSLSPGERATLSCRASQSISSVHLAWYQQKPGQAPRLLIYGASSRATGIPDRFSGSGSETDFTLTVSRLEPDDFTMYYCQQYGSSPWTFGQGTKVEIKRTVAAPSVFIFPPSDEQLKSGTASVVCLLNNFYPREAKVQWKVDNALQSGNSQESVTEQDSKDSTYSLSSTLTLSKADYEKHKVYACEVTHQGLSSPVTKSFNRGEC
notes: fully human anti-GLP1R antagonist antibody; heavy/light chain 56/58
- ka ([1]; 25° C.): 128000 M⁻¹ s⁻¹
- kd ([1]; 25° C.): 0.000183 s⁻¹
- ka ([1]; 37° C.): 251000 M⁻¹ s⁻¹
- kd ([1]; 37° C.): 0.00065 s⁻¹
- ka ([2]; 25° C.): 42200 M⁻¹ s⁻¹
- kd ([2]; 25° C.): 0.000826 s⁻¹
- ka ([2]; 37° C.): 69500 M⁻¹ s⁻¹
- kd ([2]; 37° C.): 0.00384 s⁻¹
- glucose normalizing effects during Exendin-4 challenges (GLP1R humanized mice; 25 mg/kg s.c. on Day 0, challenges on Days 1, 8, 22, 46, 67): did not exhibit glucose normalizing effects
- Blood glucose levels (GLP1R humanized mice; Day 1, 0 min): 216 mg/dL
- Blood glucose levels (GLP1R humanized mice; Day 1, 15 min): 195** mg/dL
- Percent differences in blood glucose levels from Group 1 (GLP1R humanized mice; Day 1, 15 min): −24** %
- Blood glucose levels (GLP1R humanized mice; Day 1, 30 min): 151**** mg/dL
- Percent differences in blood glucose levels from Group 1 (GLP1R humanized mice; Day 1, 30 min): −41**** %
- Blood glucose levels (GLP1R humanized mice; Day 1, 60 min): 140**** mg/dL
- Percent differences in blood glucose levels from Group 1 (GLP1R humanized mice; Day 1, 60 min): −38**** %
- Blood glucose levels (GLP1R humanized mice; Day 1, 120 min): 160** mg/dL
- Percent differences in blood glucose levels from Group 1 (GLP1R humanized mice; Day 1, 120 min): −26** %
- Blood glucose levels (GLP1R humanized mice; Day 8, 0 min): 204 mg/dL
- Percent differences in blood glucose levels from Group 1 (GLP1R humanized mice; Day 8, 0 min): −4%
- Blood glucose levels (GLP1R humanized mice; Day 8, 15 min): 182*** mg/dL
- Percent differences in blood glucose levels from Group 1 (GLP1R humanized mice; Day 8, 15 min): −30** %
- Blood glucose levels (GLP1R humanized mice; Day 8, 30 min): 158**** mg/dL
- Percent differences in blood glucose levels from Group 1 (GLP1R humanized mice; Day 8, 30 min): −36*** %
- Blood glucose levels (GLP1R humanized mice; Day 8, 60 min): 146**** mg/dL
- Percent differences in blood glucose levels from Group 1 (GLP1R humanized mice; Day 8, 60 min): −40**** %
- Blood glucose levels (GLP1R humanized mice; Day 8, 120 min): 182 mg/dL
- Percent differences in blood glucose levels from Group 1 (GLP1R humanized mice; Day 8, 120 min): −13%
- Blood glucose levels (GLP1R humanized mice; Day 22, 0 min): 192 mg/dL
- Percent differences in blood glucose levels from Group 1 (GLP1R humanized mice; Day 22, 0 min): −8%
- Blood glucose levels (GLP1R humanized mice; Day 22, 15 min): 149**** mg/dL
- Percent differences in blood glucose levels from Group 1 (GLP1R humanized mice; Day 22, 15 min): −44**** %
- Blood glucose levels (GLP1R humanized mice; Day 22, 30 min): 121**** mg/dL
- Percent differences in blood glucose levels from Group 1 (GLP1R humanized mice; Day 22, 30 min): −52**** %
- Blood glucose levels (GLP1R humanized mice; Day 22, 60 min): 139**** mg/dL
- Percent differences in blood glucose levels from Group 1 (GLP1R humanized mice; Day 22, 60 min): −42**** %
- Blood glucose levels (GLP1R humanized mice; Day 22, 120 min): 167 mg/dL
- Percent differences in blood glucose levels from Group 1 (GLP1R humanized mice; Day 22, 120 min): −20* %
- Blood glucose levels (GLP1R humanized mice; Day 46, 0 min): 184 mg/dL
- Percent differences in blood glucose levels from Group 1 (GLP1R humanized mice; Day 46, 0 min): 1%
- Blood glucose levels (GLP1R humanized mice; Day 46, 15 min): 167*** mg/dL
- Percent differences in blood glucose levels from Group 1 (GLP1R humanized mice; Day 46, 15 min): −32** %
- Blood glucose levels (GLP1R humanized mice; Day 46, 30 min): 138**** mg/dL
- Percent differences in blood glucose levels from Group 1 (GLP1R humanized mice; Day 46, 30 min): −45*** %
- Blood glucose levels (GLP1R humanized mice; Day 46, 60 min): 144**** mg/dL
- Percent differences in blood glucose levels from Group 1 (GLP1R humanized mice; Day 46, 60 min): −36** %
- Blood glucose levels (GLP1R humanized mice; Day 46, 120 min): 184 mg/dL
- Percent differences in blood glucose levels from Group 1 (GLP1R humanized mice; Day 46, 120 min): −1%
- Blood glucose levels (GLP1R humanized mice; Day 67, 0 min): 195 mg/dL
- Percent differences in blood glucose levels from Group 1 (GLP1R humanized mice; Day 67, 0 min): 0%
- Blood glucose levels (GLP1R humanized mice; Day 67, 15 min): 153**** mg/dL
- Percent differences in blood glucose levels from Group 1 (GLP1R humanized mice; Day 67, 15 min): −42*** %
- Blood glucose levels (GLP1R humanized mice; Day 67, 30 min): 144**** mg/dL
- Percent differences in blood glucose levels from Group 1 (GLP1R humanized mice; Day 67, 30 min): −45*** %
- Blood glucose levels (GLP1R humanized mice; Day 67, 60 min): 144**** mg/dL
- Percent differences in blood glucose levels from Group 1 (GLP1R humanized mice; Day 67, 60 min): −39** %
- Blood glucose levels (GLP1R humanized mice; Day 67, 120 min): 168* mg/dL
- Percent differences in blood glucose levels from Group 1 (GLP1R humanized mice; Day 67, 120 min): −26%
- ka ([3]; 25° C.): 152000 M⁻¹ s⁻¹
- kd ([3]; 25° C.): 0.000866 s⁻¹
- ka ([3]; 37° C.): 195000 M⁻¹ s⁻¹
- kd ([3]; 37° C.): 0.00349 s⁻¹
- ka ([4]; 25° C.): 56900 M⁻¹ s⁻¹
- kd ([4]; 25° C.): 0.000617 s⁻¹
- ka ([4]; 37° C.): 83600 M⁻¹ s⁻¹
- kd ([4]; 37° C.): 0.00249 s⁻¹
- ka ([5]; 25° C.): 120000 M⁻¹ s⁻¹
- kd ([5]; 25° C.): 0.00052 s⁻¹
- ka ([5]; 37° C.): 139000 M⁻¹ s⁻¹
- kd ([5]; 37° C.): 0.00229 s⁻¹

Reference: patent US12421317B2, “Polynucleotides encoding anti-glucagon-like peptide 1 receptor (GLP1R) antagonist antibodies” (Regeneron Pharmaceuticals, Inc., priority 2020, dated 2025)
